Publication PMC8572914
These are yes or no findings as the source states them, for the method shown. Binding seen in cells or lysates may run through a third protein. Some binding calls cover weakened binding; strength is not graded here. Where a sequence is shown, tags or fusion partners need not be part of it.

Protein sequences, listed by entry. Tags and fused reporters are not part of them.
UniProt P56450: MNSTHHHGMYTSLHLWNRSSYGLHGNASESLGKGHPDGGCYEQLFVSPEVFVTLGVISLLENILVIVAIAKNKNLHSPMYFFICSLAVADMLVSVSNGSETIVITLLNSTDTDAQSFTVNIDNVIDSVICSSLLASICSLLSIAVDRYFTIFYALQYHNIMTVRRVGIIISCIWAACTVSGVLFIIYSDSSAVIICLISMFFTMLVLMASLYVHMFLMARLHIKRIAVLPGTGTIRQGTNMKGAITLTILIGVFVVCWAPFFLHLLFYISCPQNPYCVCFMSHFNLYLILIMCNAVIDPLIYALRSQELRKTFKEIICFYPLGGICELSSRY
UniProt P61168: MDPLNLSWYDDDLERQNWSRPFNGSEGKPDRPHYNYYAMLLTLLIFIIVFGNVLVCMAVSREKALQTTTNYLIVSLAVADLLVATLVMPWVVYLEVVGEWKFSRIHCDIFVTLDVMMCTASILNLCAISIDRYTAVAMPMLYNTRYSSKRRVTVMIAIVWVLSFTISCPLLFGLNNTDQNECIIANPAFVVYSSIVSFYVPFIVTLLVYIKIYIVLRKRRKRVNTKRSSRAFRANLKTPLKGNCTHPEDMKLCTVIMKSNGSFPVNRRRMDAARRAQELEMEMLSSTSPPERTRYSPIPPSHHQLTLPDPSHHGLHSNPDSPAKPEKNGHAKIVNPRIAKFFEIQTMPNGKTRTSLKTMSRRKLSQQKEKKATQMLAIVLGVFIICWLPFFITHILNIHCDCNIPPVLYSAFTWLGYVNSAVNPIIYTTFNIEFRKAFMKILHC

What was measured:
[1] = biological target: FLAG-MC4R-VF2 (mouse melanocortin-4 receptor with Venus fragment VF2) (mouse) (UniProt P56450); test: split reporter; BiFC: VF1-X and FLAG-MC4R-VF2 co-transfected in HEK293T cells; fixed 24 h after transfection, confocal microscopy
[2] = biological target: wild-type mouse MRAP2 with Venus fragment (VF1-MRAP2 / FLAG-MRAP2-VF2) (mouse) (UniProt D3Z1Q2); test: split reporter; BiFC: VF1-X and FLAG-X-VF2 (Venus fragments on opposite ends of MRAP2 or its variants) co-transfected in HEK293T cells; fixed 24 h after transfection, confocal microscopy
[3] = biological target: 3HA-tagged dopamine receptor D2 (UniProt P61168); test: co-IP; HEK293 cells co-transfected with 3HA-MC4R or 3HA-D2dr and 2FLAG-MRAP2 variants or 2FLAG-RAMP3; MRAP2 variants and RAMP3 detected with mouse anti-Flag antibody; beads only as control
[4] = biological target: 3HA-tagged mouse melanocortin-4 receptor (mouse) (UniProt P56450); test: as above
[5] = biological target: mouse MRAP2 variant V (N- and C-terminal transposition), 2FLAG-tagged / 3HA-tagged (mouse) (UniProt D3Z1Q2); test: co-IP; HEK293T cells co-transfected with 2FLAG-tagged and 3HA-tagged copies of one variant at a ratio of 1:1; lysate incubated with mouse anti-HA or anti-FLAG overnight at 4°C, protein A+G agarose beads; Western blot
[6] = biological target: mouse MRAP2 variant V (N- and C-terminal transposition) with Venus fragment (VF1-X / FLAG-X-VF2) (mouse) (UniProt D3Z1Q2); test: split reporter; BiFC: VF1-X and FLAG-X-VF2 (Venus fragments on opposite ends of MRAP2 or its variants) co-transfected in HEK293T cells; fixed 24 h after transfection, confocal microscopy

binding [1] | binding [4] | Binder | further results
binds | – | wild-type mouse MRAP2 with Venus fragment (VF1-MRAP2 / FLAG-MRAP2-VF2) (protein, UniProt D3Z1Q2 1-207) MEMSAQRLASNRTSPQSPSNSDYTWEYEYYEIGPVSFEGLKAHKYSIVIGFWVGLAVFVIFMFFVLTLLTKTGAPHQDNAESSERRFRMNSFVSDFGKPLESDKVFSRQGNEESRSLFHCYINEVEHLDRVKVCHQTTAIDSDVHLQEASRSSGRPEEELARFMKFDIPNFVNTEQSSFGEDDLLISEAPVLLENKPVSQTSRIDLD | binding [2]: binds
– | binds | mouse MRAP2 variant V (N- and C-terminal transposition), 2FLAG-tagged / 3HA-tagged (protein, UniProt D3Z1Q2 68-207; D3Z1Q2 47-67; D3Z1Q2 1-46) LLTKTGAPHQDNAESSERRFRMNSFVSDFGKPLESDKVFSRQGNEESRSLFHCYINEVEHLDRVKVCHQTTAIDSDVHLQEASRSSGRPEEELARFMKFDIPNFVNTEQSSFGEDDLLISEAPVLLENKPVSQTSRIDLDIVIGFWVGLAVFVIFMFFVLTMEMSAQRLASNRTSPQSPSNSDYTWEYEYYEIGPVSFEGLKAHKYS | binding [3]: no binding; binding [5]: binds

The remaining lines, values behind:

Binder | binding [1] | binding [4] | further results
mouse MRAP2 variant V (N- and C-terminal transposition) with Venus fragment (VF1-X / FLAG-X-VF2) (protein, UniProt D3Z1Q2 68-207; D3Z1Q2 47-67; D3Z1Q2 1-46) LLTKTGAPHQDNAESSERRFRMNSFVSDFGKPLESDKVFSRQGNEESRSLFHCYINEVEHLDRVKVCHQTTAIDSDVHLQEASRSSGRPEEELARFMKFDIPNFVNTEQSSFGEDDLLISEAPVLLENKPVSQTSRIDLDIVIGFWVGLAVFVIFMFFVLTMEMSAQRLASNRTSPQSPSNSDYTWEYEYYEIGPVSFEGLKAHKYS | binds | – | binding [6]: binds
2FLAG-tagged RAMP3 (protein, UniProt Q9WUP1 23-147) QVCGCNETGMLERLPRCGKAFADMMQKVAVWKWCNLSEFIVYYESFTNCTEMETNIMGCYWPNPLAQSFITGIHRQFFSNCTVDRTHWEDPPDEVLIPLIAVPVVLTVAMAGLVVWRSKHTDRLL | – | no binding | –
